One assay addresses T1, 3xFlag-Mst1-WT (UniProt Q13043).
T1 sequence: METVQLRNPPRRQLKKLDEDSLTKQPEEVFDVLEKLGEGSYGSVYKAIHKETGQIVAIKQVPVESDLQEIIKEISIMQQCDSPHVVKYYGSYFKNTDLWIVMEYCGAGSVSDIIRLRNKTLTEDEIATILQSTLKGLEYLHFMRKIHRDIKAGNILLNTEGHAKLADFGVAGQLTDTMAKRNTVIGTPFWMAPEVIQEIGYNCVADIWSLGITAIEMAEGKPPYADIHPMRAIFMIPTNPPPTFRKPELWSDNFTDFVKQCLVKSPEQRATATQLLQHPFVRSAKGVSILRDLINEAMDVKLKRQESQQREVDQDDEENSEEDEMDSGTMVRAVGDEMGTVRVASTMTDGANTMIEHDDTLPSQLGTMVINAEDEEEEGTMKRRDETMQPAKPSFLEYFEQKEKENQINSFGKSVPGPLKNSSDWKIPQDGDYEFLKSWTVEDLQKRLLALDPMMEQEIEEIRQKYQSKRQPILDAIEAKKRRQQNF
Description: pull-down; in vitro; recombinant GST-FoxO1 proteins (called preys in the legend) with 3xFlag-Mst1-WT; PBS with 0.5% Triton X-100, 4 °C, glutathione Sepharose 4B; immunoblot and CBB staining; both purified. On the technique in general: Immunoblotting shows a protein as a band on a membrane.

Chains of the proteins cited; added tags and fusions are not shown. Lines headed by an entry give the natural chain unless they say otherwise; changes in a name come on top. A line that says so, or that is headed by a name, gives the form on record, which may keep a tag or linker.
UniProt Q9R1E0: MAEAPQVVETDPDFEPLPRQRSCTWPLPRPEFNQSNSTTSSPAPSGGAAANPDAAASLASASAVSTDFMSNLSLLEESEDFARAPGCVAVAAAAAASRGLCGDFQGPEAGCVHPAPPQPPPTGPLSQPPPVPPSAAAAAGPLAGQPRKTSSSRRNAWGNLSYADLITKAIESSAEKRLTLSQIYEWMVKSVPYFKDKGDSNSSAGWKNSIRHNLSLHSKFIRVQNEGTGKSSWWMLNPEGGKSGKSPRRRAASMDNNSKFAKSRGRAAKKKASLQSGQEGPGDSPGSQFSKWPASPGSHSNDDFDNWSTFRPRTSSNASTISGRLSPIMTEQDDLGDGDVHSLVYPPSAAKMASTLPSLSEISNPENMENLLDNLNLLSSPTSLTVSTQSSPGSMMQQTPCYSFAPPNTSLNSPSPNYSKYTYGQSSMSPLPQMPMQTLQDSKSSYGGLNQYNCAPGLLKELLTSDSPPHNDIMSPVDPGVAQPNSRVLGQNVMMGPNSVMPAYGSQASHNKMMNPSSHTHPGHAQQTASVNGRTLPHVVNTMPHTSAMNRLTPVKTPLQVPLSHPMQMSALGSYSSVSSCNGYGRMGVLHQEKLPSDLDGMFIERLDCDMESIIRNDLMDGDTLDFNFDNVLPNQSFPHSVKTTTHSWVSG
UniProt P17676: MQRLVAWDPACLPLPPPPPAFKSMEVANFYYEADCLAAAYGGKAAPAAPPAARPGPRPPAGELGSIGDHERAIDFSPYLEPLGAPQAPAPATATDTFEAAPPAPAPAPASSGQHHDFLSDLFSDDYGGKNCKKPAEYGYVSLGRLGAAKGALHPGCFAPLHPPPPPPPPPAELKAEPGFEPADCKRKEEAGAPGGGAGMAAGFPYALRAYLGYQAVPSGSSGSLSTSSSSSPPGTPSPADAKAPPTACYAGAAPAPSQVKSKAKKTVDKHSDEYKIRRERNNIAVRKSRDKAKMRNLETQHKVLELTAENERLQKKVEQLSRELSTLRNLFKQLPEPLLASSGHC
C/EBP-β Thr299Glu phospho-mimetic (PM) mutant, expressed in cardiomyocytes (P17676, form named): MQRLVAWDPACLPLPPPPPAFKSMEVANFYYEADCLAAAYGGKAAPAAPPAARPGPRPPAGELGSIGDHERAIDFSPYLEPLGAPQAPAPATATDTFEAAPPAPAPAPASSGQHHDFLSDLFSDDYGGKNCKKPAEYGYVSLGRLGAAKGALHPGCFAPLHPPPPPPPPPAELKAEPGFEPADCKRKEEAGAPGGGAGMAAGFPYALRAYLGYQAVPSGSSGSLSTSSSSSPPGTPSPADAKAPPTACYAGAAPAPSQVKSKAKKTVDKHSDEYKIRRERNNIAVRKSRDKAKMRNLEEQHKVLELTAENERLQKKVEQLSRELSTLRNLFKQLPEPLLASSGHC

The next assay addresses 3×Flag-FoxO1-FL (mouse) (UniProt Q9R1E0). Description: pull-down; in vitro; recombinant human GST-C/EBP-β proteins (called preys in the legend) with 3×Flag-FoxO1-FL; PBS with 0.5% Triton X-100, 4 °C, glutathione Sepharose 4B; both purified.
Assay [1] concerns the target C/EBP-β in cultured cardiomyocyte lysates (co-immunoprecipitation with FoxO1) (not stated (endogenous rat C/EBP-β or adenoviral human C/EBP-β)) (UniProt P17676). Description: co-IP; cultured cardiomyocytes expressing FoxO1(S209A) or FoxO1-PR in the presence of Mst1 (Supplementary Fig. 8e); which protein was precipitated is not told.
The target in assay [2] is C/EBP-β Thr299Glu phospho-mimetic (PM) mutant, expressed in cardiomyocytes (human) (UniProt P17676). Description: co-IP; cultured cardiomyocyte lysates; C/EBP-β (WT, PM or PR) immunoprecipitated, FoxO1 detected; with or without overexpression of Mst1 or DN-Mst1; RIPA buffer.
The target of assay [3] is C/EBP-β in cultured cardiomyocyte lysates (co-immunoprecipitation with FoxO1) (not stated (endogenous rat C/EBP-β or adenoviral human C/EBP-β)) (UniProt P17676). The description is as above.
Assay [4] addresses T2, Mammalian sterile 20-like kinase 1 (Mst1), endogenous in mouse heart (mouse (endogenous in heart)) (UniProt Q9JI11).
T2 sequence: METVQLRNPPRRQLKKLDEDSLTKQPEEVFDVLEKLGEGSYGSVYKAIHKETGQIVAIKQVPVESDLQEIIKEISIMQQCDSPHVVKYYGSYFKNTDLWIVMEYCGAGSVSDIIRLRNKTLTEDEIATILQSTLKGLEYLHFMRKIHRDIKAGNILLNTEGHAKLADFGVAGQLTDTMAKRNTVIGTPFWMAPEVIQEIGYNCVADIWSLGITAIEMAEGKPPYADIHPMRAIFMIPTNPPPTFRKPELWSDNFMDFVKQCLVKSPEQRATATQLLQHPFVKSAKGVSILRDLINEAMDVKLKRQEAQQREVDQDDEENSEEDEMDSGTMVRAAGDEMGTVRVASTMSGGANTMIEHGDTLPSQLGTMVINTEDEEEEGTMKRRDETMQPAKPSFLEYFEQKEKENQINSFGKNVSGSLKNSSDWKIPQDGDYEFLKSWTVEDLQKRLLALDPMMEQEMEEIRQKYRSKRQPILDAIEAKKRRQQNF
In words: co-IP; heart homogenates; immunoprecipitation with anti-Mst1 or control IgG, immunoblot with anti-FoxO1; at baseline and after 2 weeks of transverse aortic constriction.

13 substances from PMC11282193, “Mst1-mediated phosphorylation of FoxO1 and C/EBP-β stimulates cell-protective mechanisms in cardiomyocytes” can be followed below.

Results are given in words; binding and its absence hold for the method and conditions named. For some assays here: Binding seen in cells or lysates may run through a third protein. Some results given as binding are weak or reduced against the parent protein; the word gives no strength. For some assays here: Where a sequence is shown, tags or fusion partners need not be part of it.

Take “Recombinant full-length FoxO1 (FoxO1-FL: amino acid 1-652), GST fusion (from UniProt Q9R1E0 1-652)”: in the assay with 3xFlag-Mst1-WT, the binding entry is recorded as “binds”. On to “C/EBP-β-TA (1-134), GST fusion (from UniProt P17676 1-134) (domain or fragment)”, for which the binding result with 3×Flag-FoxO1-FL (mouse) is recorded as “no binding”. For the substance “FoxO1(S209A), expressed from adenovirus in cardiomyocytes (from UniProt Q9R1E0 1-652)”, the binding entry in assay [1] is recorded as “binds”.

On to “FoxO1-NT (amino acid 1-118), GST fusion (from UniProt Q9R1E0 1-118) (domain or fragment)”, for which the binding result in the assay with 3xFlag-Mst1-WT is “no binding”. For the substance “FoxO1 in cultured cardiomyocyte lysates (co-immunoprecipitation with C/EBP-β) (from UniProt Q9R1E0 1-652)”, the binding result in assay [2] and in assay [3] was “binds” each time.

With “DNA-binding domain of FoxO1 (FoxO1-DBD: amino acid 111-280), GST fusion (from UniProt Q9R1E0 111-280) (domain or fragment)”, the binding result in the assay with 3xFlag-Mst1-WT is listed as “binds”. With “C/EBP-β-MID (135-240), GST fusion (from UniProt P17676 135-240) (domain or fragment)”, the binding result with 3×Flag-FoxO1-FL (mouse) is given as “no binding”. For “FoxO1 phospho-resistant (PR) mutant (Ser209, Ser215, Ser218, Thr228, Ser232 and Ser243 replaced with alanine), expressed from adenovirus in cardiomyocytes (from UniProt Q9R1E0 1-652)”, the binding entry in assay [1] is on record as “no binding”.

For “FoxO1-CT1 (amino acid 280-421), GST fusion (from UniProt Q9R1E0 280-421) (domain or fragment)”, the binding result with 3xFlag-Mst1-WT is listed as “no binding”. As for “FoxO1, endogenous in mouse heart (from UniProt Q9R1E0 1-652)”, the binding result in assay [4] is given as “binds”. For the substance “FoxO1-CT2 (amino acid 421-652), GST fusion (from UniProt Q9R1E0 421-652) (domain or fragment)”, the binding entry in the assay with 3xFlag-Mst1-WT is “no binding”.

Consider “C-terminal domain of C/EBP-β (C/EBP-β-CT: 241-345), GST fusion (from UniProt P17676 241-345) (domain or fragment)”, for which the binding entry in the assay with 3×Flag-FoxO1-FL (mouse) is reported as “binds”. For “Recombinant full-length human C/EBP-β (C/EBP-β-FL: amino acid 1-345), GST fusion (from UniProt P17676-1 1-345)”, the binding entry with 3×Flag-FoxO1-FL (mouse) is “binds”.
